The chains are these.
B1: CAAAAGG (DNA:RNA)
RNA: GGGAGACCGGAAUUCAGAUUGUCCCAAAAGGUUAAAUCCCGUCGUAGCCACCA
DNA 1: CAATCTGAATTCCGGTCTCCC
DNA 2: TGGTGGCTACGACGGGATT
B2: AAUUGGG (DNA:RNA)
RNA: B1 RNA with C25A, A27U, A28U, A29G
DNA 1: CAATCTGAATTCCGGTCTCCC
DNA 2: TGGTGGCTACGACGGGATT
B3: UUGCGCC (DNA:RNA)
RNA: GGGAGACCGGAAUUCAGAUUGUCCUUGCGCCUUAAAUCCCGUCGUAGCCACCA
DNA 1: CAATCTGAATTCCGGTCTCCC
DNA 2: TGGTGGCTACGACGGGATT
B4: GUCUCAA (DNA:RNA)
RNA: B3 RNA with U25G, G27C, C28U, G29C, C30A, C31A
DNA 1: CAATCTGAATTCCGGTCTCCC
DNA 2: TGGTGGCTACGACGGGATT
B5: AGACUGU (DNA:RNA)
RNA: B1 RNA with C25A, A26G, A28C, A29U, G31U
DNA 1: CAATCTGAATTCCGGTCTCCC
DNA 2: TGGTGGCTACGACGGGATT
B6: AACAUAU (DNA:RNA)
RNA: B1 RNA with C25A, A27C, A29U, G30A, G31U
DNA 1: CAATCTGAATTCCGGTCTCCC
DNA 2: TGGTGGCTACGACGGGATT
B7: GACUCUA (DNA:RNA)
RNA: B1 RNA with C25G, A27C, A28U, A29C, G30U, G31A
DNA 1: CAATCTGAATTCCGGTCTCCC
DNA 2: TGGTGGCTACGACGGGATT
B8: ACAGACA (DNA:RNA)
RNA: B1 RNA with C25A, A26C, A28G, G30C, G31A
DNA 1: CAATCTGAATTCCGGTCTCCC
DNA 2: TGGTGGCTACGACGGGATT
B9: CCGGACG (DNA:RNA)
RNA: B1 RNA with A26C, A27G, A28G, G30C
DNA 1: CAATCTGAATTCCGGTCTCCC
DNA 2: TGGTGGCTACGACGGGATT
B10: UCGUUAA (DNA:RNA)
RNA: B3 RNA with U26C, C28U, G29U, C30A, C31A
DNA 1: CAATCTGAATTCCGGTCTCCC
DNA 2: TGGTGGCTACGACGGGATT
B11: GUGCUGA (DNA:RNA)
RNA: B3 RNA with U25G, G29U, C30G, C31A
DNA 1: CAATCTGAATTCCGGTCTCCC
DNA 2: TGGTGGCTACGACGGGATT
B12: GGAUAGC (DNA:RNA)
RNA: B1 RNA with C25G, A26G, A28U, G31C
DNA 1: CAATCTGAATTCCGGTCTCCC
DNA 2: TGGTGGCTACGACGGGATT
B13: GAAGGAG (DNA:RNA)
RNA: B1 RNA with C25G, A28G, A29G, G30A
DNA 1: CAATCTGAATTCCGGTCTCCC
DNA 2: TGGTGGCTACGACGGGATT
B14: CAAAUCC (DNA:RNA)
RNA: B1 RNA with A29U, G30C, G31C
DNA 1: CAATCTGAATTCCGGTCTCCC
DNA 2: TGGTGGCTACGACGGGATT
B15: UCUAUCC (DNA:RNA)
RNA: B3 RNA with U26C, G27U, C28A, G29U
DNA 1: CAATCTGAATTCCGGTCTCCC
DNA 2: TGGTGGCTACGACGGGATT
B16: GUAGUAC (DNA:RNA)
RNA: B3 RNA with U25G, G27A, C28G, G29U, C30A
DNA 1: CAATCTGAATTCCGGTCTCCC
DNA 2: TGGTGGCTACGACGGGATT
B17: CAUCUCG (DNA:RNA)
RNA: B1 RNA with A27U, A28C, A29U, G30C
DNA 1: CAATCTGAATTCCGGTCTCCC
DNA 2: TGGTGGCTACGACGGGATT
B18: AGCAUCC (DNA:RNA)
RNA: B3 RNA with U25A, U26G, G27C, C28A, G29U
DNA 1: CAATCTGAATTCCGGTCTCCC
DNA 2: TGGTGGCTACGACGGGATT
B19: AAUCCCA (DNA:RNA)
RNA: B3 RNA with U25A, U26A, G27U, G29C, C31A
DNA 1: CAATCTGAATTCCGGTCTCCC
DNA 2: TGGTGGCTACGACGGGATT
B20: UUGGGCC (DNA:RNA)
RNA: B3 RNA with C28G
DNA 1: CAATCTGAATTCCGGTCTCCC
DNA 2: TGGTGGCTACGACGGGATT
B21: AGCCAAC (DNA:RNA)
RNA: B3 RNA with U25A, U26G, G27C, G29A, C30A
DNA 1: CAATCTGAATTCCGGTCTCCC
DNA 2: TGGTGGCTACGACGGGATT
B22: UAAGUAU (DNA:RNA)
RNA: B1 RNA with C25U, A28G, A29U, G30A, G31U
DNA 1: CAATCTGAATTCCGGTCTCCC
DNA 2: TGGTGGCTACGACGGGATT
B23: CGUAAGU (DNA:RNA)
RNA: B1 RNA with A26G, A27U, G31U
DNA 1: CAATCTGAATTCCGGTCTCCC
DNA 2: TGGTGGCTACGACGGGATT
B24: AAGGCAU (DNA:RNA)
RNA: B1 RNA with C25A, A27G, A28G, A29C, G30A, G31U
DNA 1: CAATCTGAATTCCGGTCTCCC
DNA 2: TGGTGGCTACGACGGGATT
B25: UAGACAU (DNA:RNA)
RNA: B1 RNA with C25U, A27G, A29C, G30A, G31U
DNA 1: CAATCTGAATTCCGGTCTCCC
DNA 2: TGGTGGCTACGACGGGATT
B26: CACUGAU (DNA:RNA)
RNA: B1 RNA with A27C, A28U, A29G, G30A, G31U
DNA 1: CAATCTGAATTCCGGTCTCCC
DNA 2: TGGTGGCTACGACGGGATT
B27: UGAAACA (DNA:RNA)
RNA: B1 RNA with C25U, A26G, G30C, G31A
DNA 1: CAATCTGAATTCCGGTCTCCC
DNA 2: TGGTGGCTACGACGGGATT
B28: UCCGGAA (DNA:RNA)
RNA: B3 RNA with U26C, G27C, C28G, C30A, C31A
DNA 1: CAATCTGAATTCCGGTCTCCC
DNA 2: TGGTGGCTACGACGGGATT
B29: AACGGAU (DNA:RNA)
RNA: B1 RNA with C25A, A27C, A28G, A29G, G30A, G31U
DNA 1: CAATCTGAATTCCGGTCTCCC
DNA 2: TGGTGGCTACGACGGGATT
B30: UCCUUAU (DNA:RNA)
RNA: B3 RNA with U26C, G27C, C28U, G29U, C30A, C31U
DNA 1: CAATCTGAATTCCGGTCTCCC
DNA 2: TGGTGGCTACGACGGGATT
B31: CCGGGAA (DNA:RNA)
RNA: B3 RNA with U25C, U26C, C28G, C30A, C31A
DNA 1: CAATCTGAATTCCGGTCTCCC
DNA 2: TGGTGGCTACGACGGGATT

Changes are numbered by the printed parent chain; changes in the protein carry UniProt numbers. The list shows a part of the results.

The target of this assay is T1, RBFOX1 RRM (Homo sapiens, UniProt Q9NWB1 109-208).
T1 sequence: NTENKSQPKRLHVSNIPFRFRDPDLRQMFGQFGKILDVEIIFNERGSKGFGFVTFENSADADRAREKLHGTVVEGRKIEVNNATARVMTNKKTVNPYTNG
The assay is described as follows: EMSA; HiTS-Eq, 1 nM pool, 10 min; buffer printed only for the single-RNA assays: 10 mM Tris pH 7.5, 150 mM NaCl, 3.4 mM EDTA, 0.001% NP-40, 30 C. To be noted: tags: His6 N-terminal (pET28a); label: 5' 32P. Put shortly:
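Purified RbFox RRM (wild type or mutant) was equilibrated for 10 min in 50 µL with 1 nM of a 5′-radiolabelled pool of RNA with 7 randomized nucleotides, its flanks annealed to DNA oligonucleotides, across increasing protein concentrations. Free RNA was separated by 8% native PAGE, excised, reverse-transcribed, PCR-barcoded and sequenced on an Illumina HiSeq 2500. Relative association constants came from read-count changes of each variant against the control reaction, normalised to the cognate motif.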
In general terms: Mobility shift assays separate free from complexed probe on a gel.
With B1, the binding signal was 0.00436 KA relative to UGCAUGU.

For B2, the binding signal is 0.00804 KA relative to UGCAUGU. The figure for B3 is 0.012 KA relative to UGCAUGU.

Consider B4, for which the binding signal is 0.00772 KA relative to UGCAUGU. Turning to B5, the binding signal is 0.0147 KA relative to UGCAUGU. For the molecule B6, the binding signal is 0.00127 KA relative to UGCAUGU. The figure for B7 is 0.00483 KA relative to UGCAUGU; for B8 it is 0.00018 KA relative to UGCAUGU. With B9, the binding signal is 0.00547 KA relative to UGCAUGU.

Turning to B10, the binding signal is 0.00632 KA relative to UGCAUGU. To B11 belongs 0.0323 KA relative to UGCAUGU; to B12, 0.014 KA relative to UGCAUGU; to B13, 0.00502 KA relative to UGCAUGU. In the case of B14, the binding signal was 0.000273 KA relative to UGCAUGU. Turning to B15, the binding signal was 0.00481 KA relative to UGCAUGU. In the case of B16, the binding signal is 0.0112 KA relative to UGCAUGU. On to B17, for which the binding signal is 0.00555 KA relative to UGCAUGU. On to B18, for which the binding signal is 0.0214 KA relative to UGCAUGU. Regarding B19, the binding signal was 0.000887 KA relative to UGCAUGU. Regarding B20, the binding signal is 0.0194 KA relative to UGCAUGU.

B21: the binding signal was 0.00125 KA relative to UGCAUGU.

On to B22, for which the binding signal was 0.0115 KA relative to UGCAUGU. On to B23, for which the binding signal was 0.00915 KA relative to UGCAUGU. For the molecule B24, the binding signal was 0.0103 KA relative to UGCAUGU. For the molecule B25, the binding signal is 0.00404 KA relative to UGCAUGU. The figure for B26 is 0.00636 KA relative to UGCAUGU; for B27 it is 0.00828 KA relative to UGCAUGU. To B28 belongs 0.00835 KA relative to UGCAUGU.

For the molecule B29, the binding signal was 0.00561 KA relative to UGCAUGU. B30: the binding signal is 0.00181 KA relative to UGCAUGU. For B31, the binding signal was 0.0136 KA relative to UGCAUGU.

These data come from article PMC9911399, “Two distinct binding modes provide the RNA-binding protein RbFox with extraordinary sequence specificity”.
